Data from patent US20220073586A1 (EUTILEX, published 2022).

Target: PD-L1 molecules (Sino, Cat #10084-H08H) (UniProt Q9NZQ7 partial chain)
Assay: SPR, Biacore T200; PD-1 Fc fusion fixed on CM5 chip, PD-L1 injected at 3.125-100 nM

UniProt Q9NZQ7, sequence (Q9NZQ7 19-238 limits assumed): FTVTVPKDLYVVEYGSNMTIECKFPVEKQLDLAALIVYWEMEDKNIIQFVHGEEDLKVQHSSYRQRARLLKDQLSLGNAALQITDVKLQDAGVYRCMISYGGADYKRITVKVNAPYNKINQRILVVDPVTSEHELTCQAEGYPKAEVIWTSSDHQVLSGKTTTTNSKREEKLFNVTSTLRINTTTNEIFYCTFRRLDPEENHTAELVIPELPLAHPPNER

B1: wild-type PD-1 Fc fusion protein (Fc fusion)
chain: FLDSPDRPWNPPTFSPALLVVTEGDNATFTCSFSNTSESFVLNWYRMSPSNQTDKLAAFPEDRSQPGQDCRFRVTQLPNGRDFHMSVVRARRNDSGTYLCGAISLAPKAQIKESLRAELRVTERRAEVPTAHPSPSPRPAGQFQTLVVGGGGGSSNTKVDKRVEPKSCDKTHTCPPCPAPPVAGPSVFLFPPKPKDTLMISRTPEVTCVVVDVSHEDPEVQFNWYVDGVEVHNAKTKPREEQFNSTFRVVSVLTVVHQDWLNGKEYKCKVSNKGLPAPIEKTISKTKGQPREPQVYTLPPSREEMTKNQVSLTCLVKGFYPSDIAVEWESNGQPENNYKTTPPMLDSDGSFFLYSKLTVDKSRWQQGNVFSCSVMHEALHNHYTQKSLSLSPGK
notes: Built from plasmid 'PD1-G4S linker-Fc'; the human PD-1 signal peptide ([…], […]) is left out; also called PD-1 wild type
Kd: 0.0429 µM
koff: 0.0102 s⁻¹
kon: 237000 M⁻¹ s⁻¹
